# Screen size: about 310,000 compounds; about 14,000 (4.5%) showed an effect of 50% or more. Effects have a minus sign here. The list shows a part of the results.
# Biological target: human ether-à-go-go-related gene (hERG) potassium channel (human, UniProt Q12809)
# Assay: primary screen, population patch clamp on CHO cells stably expressing hERG
# 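Further: peak tail current of the secondary pulse compared with the same well before compound.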
# Sequence of human ether-à-go-go-related gene (hERG) potassium channel (Q12809 whole entry, looked up): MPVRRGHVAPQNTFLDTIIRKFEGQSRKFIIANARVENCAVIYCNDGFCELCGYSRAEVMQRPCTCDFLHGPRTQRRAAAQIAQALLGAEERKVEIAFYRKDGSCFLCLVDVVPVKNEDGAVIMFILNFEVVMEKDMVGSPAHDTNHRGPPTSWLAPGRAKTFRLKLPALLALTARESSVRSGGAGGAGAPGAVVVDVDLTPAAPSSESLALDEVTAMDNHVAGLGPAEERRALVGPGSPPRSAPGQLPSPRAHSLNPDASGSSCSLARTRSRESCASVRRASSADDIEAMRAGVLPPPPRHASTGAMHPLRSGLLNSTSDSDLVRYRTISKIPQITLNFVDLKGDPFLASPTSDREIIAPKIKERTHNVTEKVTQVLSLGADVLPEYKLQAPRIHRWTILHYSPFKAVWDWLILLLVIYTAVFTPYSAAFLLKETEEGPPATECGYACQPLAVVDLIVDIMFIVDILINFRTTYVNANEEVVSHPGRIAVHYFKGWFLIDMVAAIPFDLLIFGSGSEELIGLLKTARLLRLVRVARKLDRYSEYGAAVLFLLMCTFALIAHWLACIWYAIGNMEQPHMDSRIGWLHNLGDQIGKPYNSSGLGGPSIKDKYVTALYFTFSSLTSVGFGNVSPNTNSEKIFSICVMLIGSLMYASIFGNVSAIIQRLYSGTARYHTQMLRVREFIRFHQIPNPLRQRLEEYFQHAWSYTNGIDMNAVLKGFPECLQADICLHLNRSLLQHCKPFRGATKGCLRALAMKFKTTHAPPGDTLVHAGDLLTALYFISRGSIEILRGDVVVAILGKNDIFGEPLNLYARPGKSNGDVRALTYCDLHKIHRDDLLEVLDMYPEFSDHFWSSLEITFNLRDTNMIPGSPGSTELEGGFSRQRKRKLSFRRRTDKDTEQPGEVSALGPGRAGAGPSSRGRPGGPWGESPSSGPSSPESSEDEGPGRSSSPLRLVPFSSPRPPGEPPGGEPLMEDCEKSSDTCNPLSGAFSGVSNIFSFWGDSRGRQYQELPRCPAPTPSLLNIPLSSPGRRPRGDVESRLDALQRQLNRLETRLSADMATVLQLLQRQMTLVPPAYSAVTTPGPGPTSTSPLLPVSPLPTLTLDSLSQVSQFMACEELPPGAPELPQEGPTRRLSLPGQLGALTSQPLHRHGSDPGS
row,SMILES,"hERG current change (%, negative = inhibition) at 10uM [%]"
1,Cc1ccc(-c2ccc(=O)n(CC(=O)NCc3ccc(F)cc3)n2)cc1,-20.2
2,CCC(C)N(C(=O)COC(=O)c1nc(Cl)ccc1Cl)C1CCS(=O)(=O)C1 (centres unmarked),0.886
3,CN(C)CCCn1c(N)c(C#N)c2nc3ccccc3nc21,-11
4,CCOC(=O)c1nn(-c2ccccc2)c(C(=O)OCC)c1N,5.84
5,N#Cc1cccc(NC(=O)COC(=O)c2ccccc2C(=O)c2ccc(Cl)c([N+](=O)[O-])c2)c1,1.77
6,COc1cc2c(cc1NC(=O)Nc1ccccc1)oc1ccccc12,19.5
7,COc1cc(CCCN2CCNC[C@H]2Cc2ccc(O)cc2)cc(OC)c1OC,9.33
8,CCOc1cc(NC(=O)c2ccco2)c(OCC)cc1NC(=O)COc1ccccc1C,26.4
9,CCOC(=O)C1=C(N)Oc2c(oc(CO)cc2=O)C1c1ccc(F)c(F)c1 (centres unmarked),1.95
10,Cc1cccc(NC2SC(=O)N(CC(=O)O)C2=O)c1 (centres unmarked),3.59
11,O=C(COc1ccc2c3c(c(=O)oc2c1)CCC3)NCc1ccncc1,-10.5
12,COc1ccc(N(CCC(=O)O)S(=O)(=O)c2ccc(C)c(C)c2)cc1,-10.8
13,CC(C)(CO)NCc1ccc(Br)cc1.Cl,-8
14,CC1(C)Cc2c(c(-c3ccco3)nc3sc4c(NCCN5CCOCC5)ncnc4c23)CO1,-4.19
15,Cc1cccc(-n2c(O)c(C=Nc3ccc4c(c3)OCO4)c3ccccc3c2=O)n1,-6
16,O=C(O)CC1(CC(=O)NCc2csc(-c3cccs3)n2)CCCCC1,4.62
17,COc1cc(/C=C2\SC(=S)N(CCC(=O)Nc3ccccc3)C2=O)cc(OC)c1OC,28.7
18,CC(NC(=O)c1ccccc1Br)c1nnc(SCC(=O)NC2CCCCC2)n1C (centres unmarked),-24.7
19,Cc1nnc(SCC(=O)N2CC(=O)Nc3ccccc32)n1Cc1ccccc1,-2.24

row,SMILES,"hERG current change (%, negative = inhibition) at 10uM [%]"
1,COc1ccc(/C=C(\NC(=O)c2ccccc2)C(=O)NCc2ccco2)cc1OC,1.83
2,CCc1ccc(NC(=O)NCc2ccccn2)cc1,4.06
3,N#Cc1c(N2CCCCC2)nc(N)c2c(N)nc(SCC(=O)O)cc12,-8.15
4,O=C(Nc1ccc2c(c1)OCO2)C(c1ccc(Cl)cc1)N1CCN(C(=O)c2ccco2)CC1 (centres unmarked),-40
5,COc1ccc(NC2=NCCC2)cc1,4.94
6,COc1ccc(N(C(=O)c2csnn2)C(C(=O)NC2CCCC2)c2ccccc2)cc1 (centres unmarked),-9.35
7,COc1ccnc(Oc2ccccc2)n1,5.26
8,N#CC1=C(N)C(C#N)(C#N)C2(C(=O)Nc3ccccc32)C2CCCC=C12 (centres unmarked),-5.47
9,Cc1oc(C(C)(C)C)cc1C(=O)NC1CCN(Cc2ccccc2)CC1,-8.43
10,CCc1cccc(C)c1NS(=O)(=O)c1cccs1,-11.9
11,COc1ccc(C2=NOC(C(=O)NC(C)C)C2)cc1 (centres unmarked),15.8
12,CS(=O)(=O)c1ccc(NC(=O)c2cccc(-n3cnnn3)c2)cc1,12.1
13,COc1ccc(CN(C)C(=O)C2CSC3(C)CCC(=O)N23)cc1OC (centres unmarked),15.5
14,CCc1ccc(OCC(=O)O/N=C(\N)Cc2ccc([N+](=O)[O-])cc2)cc1,-53.9
15,Fc1ccc(SCCc2ccncc2)cc1,-29.9
16,Cc1nc2ccc(NC(=O)c3sccc3C)cc2s1,-7.79
17,Cc1ccc(C(=O)Nc2ccc(C(=O)N/N=C/c3ccc(C)o3)cc2)cc1,19.9
18,Cc1ccc(S(=O)(=O)CC(=O)NC(C)c2ccccc2)cc1 (centres unmarked),8.46
19,Cc1nc2ccc(NC(=O)c3ccc(S(=O)(=O)N4CCOCC4)cc3)cc2s1,5.2

row,SMILES,"hERG current change (%, negative = inhibition) at 10uM [%]"
1,Cc1cc(C)cc(C(=O)NCC(=O)NNC(=O)CSc2ccccc2F)c1,8.47
2,CCOC(=O)CN(C(=O)CN1CCOCC1)c1ccc(Br)cc1,-7.76
3,Cc1nn(CCCC(=O)NCCc2ccccc2)c(=O)c2nn(-c3ccccc3)c(C)c12,3.79
4,CCCCC1(C)NC(=O)N(CC(=O)Nc2ccc(S(=O)(=O)N3CCOCC3)cc2)C1=O (centres unmarked),6.65
5,Cc1cccc(NC(=O)CSc2nc(C)c(Cc3ccccc3)c(=O)[nH]2)c1C,5.74
6,Cc1cccc(C(=O)NCC(=O)OCC(=O)N(C)CC(=O)Nc2ccc(F)cc2)c1,8.6
7,Cc1ccc(C(C(=O)NC2CCCC2)N2CCc3ccccc32)cc1 (centres unmarked),8.39
8,COc1ccc(NC(=O)C(c2ccc(C)cc2)N(C)C(=O)CNC(C)=O)cc1 (centres unmarked),-1.01
9,Cc1ccc(-c2nn(-c3ccccc3)cc2C=C2C(=O)CC(C)(C)CC2=O)cc1,4.87
10,CCC(=NCCCN(CC)CC)c1c(O)n(C2CCCCC2)c(=O)[nH]c1=O,-52.9
11,COc1ccc(S(=O)(=O)NCCOc2ccccc2)cc1-n1cnnn1,-10.8
12,COc1ccc(NC2=CC(=O)CC(C)(C)C2)cc1OC,-4.44
13,COc1ccc(NC(=S)N(CCc2c(C)[nH]c3ccc(C)cc23)Cc2cccs2)cc1,12.3
14,O=C(CN1CCC(C(=O)O)CC1)Nc1ccccc1Oc1ccccc1,20.1
15,C=C(C)C(=O)Nc1cccc(C(C)=O)c1,5.08
16,O=C(CN(C(=O)CCC(=O)Nc1nccs1)c1ccccc1F)NCc1ccccc1,2.45
17,Cn1c(N2CCCC2)nc2c1c(=O)n(Cc1cccc(F)c1)c(=O)n2C,-19.6
18,CCCOc1cccc(-c2nnc(NC(=O)c3ccco3)s2)c1,-0.907

# From paper PMC4336329 (PLoS ONE, 2015)
